This is one part of the list. These are noisy estimates, calculated here from bound and input reads.
biological target: T1, Pho4 (S. cerevisiae) (UniProt P07270); assay: relative binding free energy (BET-seq); higher = weaker binding; conditions: reference: library average
T1 sequence: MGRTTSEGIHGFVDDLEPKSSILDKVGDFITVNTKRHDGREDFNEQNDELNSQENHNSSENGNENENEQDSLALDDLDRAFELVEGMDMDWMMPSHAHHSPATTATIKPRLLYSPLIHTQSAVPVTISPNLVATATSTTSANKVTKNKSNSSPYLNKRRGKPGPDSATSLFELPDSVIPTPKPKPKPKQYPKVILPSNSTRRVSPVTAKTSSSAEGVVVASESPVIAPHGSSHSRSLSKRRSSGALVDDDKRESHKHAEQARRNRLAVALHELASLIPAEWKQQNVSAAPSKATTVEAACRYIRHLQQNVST

Relative binding free energy, 0.33 kcal/mol:
TTGCTCACGTGAGGGG

Relative binding free energy, 0.42 kcal/mol:
CTTTTCACGTGAATGG

Relative binding free energy, 0.1 kcal/mol:
TTTTACACGTGGGATC
GAATGCACGTGGCATT
TACGTCACGTGATGTA
CTGGGCACGTGTAAAG
TTTTACACGTGGTGGT

Relative binding free energy, -0.19 kcal/mol:
CGGGGCACGTGTCGTT
TGTGCCACGTGTAGTA
TGTGGCACGTGCGGCC
GCGCGCACGTGGTAGG
GTACGCACGTGGGGGG

Relative binding free energy, 0.28 kcal/mol:
AGTTTCACGTGCGGGA

Relative binding free energy, -0.26 kcal/mol:
AGCGGCACGTGCTGGT

Relative binding free energy, -0.11 kcal/mol:
TTTAACACGTGTATAA
GGTCGCACGTGGACGG
TAAAACACGTGGGCGG
TAAGGCACGTGCGGTT
GTGAGCACGTGCTTTG

Relative binding free energy, 0.38 kcal/mol:
GGTTTCACGTGGCGAA
GTGATCACGTGAATTA

Relative binding free energy, -0.15 kcal/mol:
TGTGGCACGTGTATCA
TGTCCCACGTGGTAGG
TTTGGCACGTGTCGTG

Relative binding free energy, -0.18 kcal/mol:
TGGAGCACGTGGGCGT
GTTGGCACGTGGGTGA
GGGCGCACGTGGGGTC

Relative binding free energy, 0.32 kcal/mol:
AAAATCACGTGAGTGT

Relative binding free energy, 0.17 kcal/mol:
CGGTGCACGTGATAGA
TCTTTCACGTGGGGCT
ATTTTCACGTGTACTG
TTTATCACGTGGTGGT

Relative binding free energy, 0.26 kcal/mol:
TATTTCACGTGTGAGG

Relative binding free energy, 0.41 kcal/mol:
AAGTTCACGTGAAGGA

Relative binding free energy, 0.15 kcal/mol:
GGAGACACGTGATGGG
AGCATCACGTGTTTTG
GAATACACGTGTGTGT

Relative binding free energy, 0.4 kcal/mol:
ACCTTCACGTGGTTGG
TATGTCACGTGAGGTC

Relative binding free energy, -0.2 kcal/mol:
ATGGGCACGTGTTTAA
AGGCGCACGTGCTGTG

Relative binding free energy, 0.36 kcal/mol:
AGATTCACGTGAGGAG
TAGGTCACGTGATTTC
GTGCTCACGTGAGGTA

Relative binding free energy, 0.25 kcal/mol:
AAATTCACGTGTTGAG

Relative binding free energy, 0.31 kcal/mol:
GTCCTCACGTGAGTGT
GAGTTCACGTGCAGGG
GTCATCACGTGATTGG
GGCTTCACGTGGCTGT

Relative binding free energy, 0.04 kcal/mol:
AGGTGCACGTGTACAT
GTGAACACGTGCGGGT
CTCGACACGTGTTTGT
CGTGGCACGTGATGTG
TATTGCACGTGTGTCA
TTTGTCACGTGGTATT
GTTTACACGTGGGCTA
ACGGTCACGTGGTTGT

Relative binding free energy, -0.16 kcal/mol:
TTGTCCACGTGTGGGA
ATTGGCACGTGGCGCT
CAAGGCACGTGTGGTG
TTACGCACGTGTCGGT

Relative binding free energy, 0.03 kcal/mol:
GGTGACACGTGGGCGA
GATGTCACGTGGGATA
TTATGCACGTGTGGCC

Relative binding free energy, 0.35 kcal/mol:
CAGTGCACGTGAGTGA

Relative binding free energy, -0.01 kcal/mol:
TGCGACACGTGGTCGT
TGTGTCACGTGCATGT
AGGTGCACGTGGAGTG

Relative binding free energy, 0.02 kcal/mol:
TCGATCACGTGGAGTT
TGGTGCACGTGTCCAG
TGGTTCACGTGGTCGA
GGATCCACGTGGGTTA

Relative binding free energy, -0.23 kcal/mol:
ATTGGCACGTGGGGGG
TGCGCCACGTGGGTAT

Relative binding free energy, 0.21 kcal/mol:
AGGTTCACGTGGTACA
GAGATCACGTGTTTTA
TGTATCACGTGATCGA
GGGAGCACGTGAGTTA

Relative binding free energy, 0.49 kcal/mol:
GGTCGCACGTGAAGAT

Relative binding free energy, -0.12 kcal/mol:
GGGCGCACGTGGGATC
TTTAGCACGTGTGCAT
TACGACACGTGGGTTG
AGGCCCACGTGTTGTG

Relative binding free energy, -0.08 kcal/mol:
AAAGTCACGTGGGTAG
TGGGGCACGTGTATCT
TTTAACACGTGGTTGA

Relative binding free energy, -0.02 kcal/mol:
TGAGTCACGTGTCATG
ATGCACACGTGGTGTA
TGCGTCACGTGTAGGA

Relative binding free energy, 0.18 kcal/mol:
TTGTTCACGTGGGCGT
CCGTGCACGTGTAAGG
CATGTCACGTGAGGTA
GTTTGCACGTGCGATG

Relative binding free energy, -0.22 kcal/mol:
CAGGGCACGTGCATGG
TCGTGCACGTGGGGTG

Relative binding free energy, 0.34 kcal/mol:
ATGGACACGTGAGTTG
GTGGTCACGTGAATGC
GGTTTCACGTGCATAG

Relative binding free energy, 0.37 kcal/mol:
TCGTTCACGTGATTGG
TATTTCACGTGAGGAT

Relative binding free energy, 0.2 kcal/mol:
TGTACCACGTGAGTGG
ATGTACACGTGTACAG
AATTTCACGTGGGGAG
AGTTACACGTGGTGGT
TATTTCACGTGGCAGG

Relative binding free energy, 0.16 kcal/mol:
GGTTGCACGTGTACGA
GGGGACACGTGGACGG
GTCGTCACGTGCATGT
GTTGACACGTGTTGTT
TGGGACACGTGTCGGG

Relative binding free energy, 0 kcal/mol:
GTATGCACGTGTCGCG
GTGTGCACGTGCATTA
ATAAGCACGTGATGAG
TGATACACGTGTAGGT
GGGAACACGTGGCAGT
AGTAACACGTGTGTTA
GTAGACACGTGGGGAG
TTTTGCACGTGATTGC
GCTAGCACGTGTTGTA
TTCAGCACGTGTTTGG

Relative binding free energy, 0.27 kcal/mol:
TTTCTCACGTGTGTGT
TTGCTCACGTGTGGGC

Relative binding free energy, 0.45 kcal/mol:
TGTCTCACGTGAAGTG

Relative binding free energy, 0.09 kcal/mol:
TGTAACACGTGATGCG
TTTATCACGTGGCTGG
GTTATCACGTGCTAGT
TGTATCACGTGTCGTA
TATTACACGTGTGGGG

Relative binding free energy, -0.32 kcal/mol:
AAAAGCACGTGGGTGT

Relative binding free energy, 0.06 kcal/mol:
CGACTCACGTGGGGGT

Relative binding free energy, -0.04 kcal/mol:
GAGGTCACGTGGCGGC
TTGCTCACGTGGGGGA

Relative binding free energy, 0.13 kcal/mol:
ATGATCACGTGTGCAG
ATTTTCACGTGGTTAC
AATTTCACGTGGTACT

Relative binding free energy, 0.23 kcal/mol:
TTCGACACGTGAGGTT
TAGTTCACGTGGTGCT
GTGTTCACGTGTAGAA
ACCTTCACGTGGGTTT
TTTAGCACGTGACGAT

Relative binding free energy, 0.19 kcal/mol:
TCTGTCACGTGTCGTA
TGTTACACGTGTGTGG
TAGAACACGTGTGTTT
AAAGGCACGTGAAGTT
TGGATCACGTGTATCG

Relative binding free energy, -0.29 kcal/mol:
CGGGCCACGTGCGGTG

Relative binding free energy, 0.22 kcal/mol:
GGTCTCACGTGGTGTA
TAGGTCACGTGCATTT
TGGTTCACGTGTGCTA

Relative binding free energy, -0.07 kcal/mol:
GGACGCACGTGGTGAG
GGTCGCACGTGGATGG
ATGAGCACGTGTGGGC
GAAGGCACGTGCAGTT
GTAAGCACGTGTTGCG

Relative binding free energy, -0.06 kcal/mol:
TTTTACACGTGGGGCT
ATGGACACGTGGGGTC
GCCTGCACGTGGCGGG
TTAAGCACGTGTGCGA

Relative binding free energy, 0.01 kcal/mol:
GTTGGCACGTGGAAGA
TACTACACGTGTTGTG
GGGGACACGTGTGCGG
GAGAACACGTGTGGTG
CGGGTCACGTGGGTTC

Relative binding free energy, -0.03 kcal/mol:
TGTAGCACGTGCTGTT
TGATGCACGTGTTGGT
TATTGCACGTGGAGTT

Relative binding free energy, -0.21 kcal/mol:
CAGGGCACGTGCGCGG
GTGGCCACGTGGTCGG
CTGTCCACGTGGGTGT
GGAAGCACGTGGTTCG

Relative binding free energy, 0.07 kcal/mol:
TAATACACGTGTTATG
GTGTACACGTGTAGAT
TGAGTCACGTGTCGAG
GTATTCACGTGGGTCA
ATTTCCACGTGGTGCG
GAGGACACGTGTGTGT
TATCTCACGTGTTTGT
GTGACCACGTGCTGGT
ATTATCACGTGGTATG

Relative binding free energy, -0.09 kcal/mol:
TGCGGCACGTGTTAGA
AAATGCACGTGCGTGT

Relative binding free energy, 0.11 kcal/mol:
GTAATCACGTGTGTTG
TCGGTCACGTGTGTAA
GGAATCACGTGGTATG
GGTGGCACGTGTAATT

Relative binding free energy, 0.05 kcal/mol:
ACTAGCACGTGGGTAT
TAAAGCACGTGATATA
AATAGCACGTGCATGT
GATTACACGTGTGTTT

Relative binding free energy, -0.13 kcal/mol:
CTTGACACGTGGGAGG

Relative binding free energy, -0.1 kcal/mol:
GGATGCACGTGGTTAA
CCGGTCACGTGGGTGG
TGGGGCACGTGTGTCA

Relative binding free energy, 0.39 kcal/mol:
GTGCTCACGTGAGGCG

Relative binding free energy, -0.17 kcal/mol:
CTTTGCACGTGGTCGG
GTAAACACGTGGTTAT

Relative binding free energy, 0.29 kcal/mol:
GGTCTCACGTGTTTAG
TTTCTCACGTGTGAAA
GTGGACACGTGAAGGG

Relative binding free energy, 0.3 kcal/mol:
GGCTGCACGTGAGGAG
TTGATCACGTGATTCT

Relative binding free energy, 0.08 kcal/mol:
AGCGTCACGTGGTTTG
AAAATCACGTGGAGGT
GGGGACACGTGTTTAG
ATTGTCACGTGTTAAT

Relative binding free energy, 0.24 kcal/mol:
CCGTGCACGTGAGTGG
ATTTTCACGTGGAATG

Relative binding free energy, 0.12 kcal/mol:
GGTCACACGTGTGGTG
GTGTGCACGTGACTAG
CTGTACACGTGTTAGG
CAGTGCACGTGAGGGG
AGTTACACGTGTGGTG

Relative binding free energy, -0.05 kcal/mol:
ATTGGCACGTGTGTTC
TTCGGCACGTGGCGGT
GTAGGCACGTGTGTAC
TTCTGCACGTGTTGTG
AATGGCACGTGTGGCA
GGCGGCACGTGTTTTT

Relative binding free energy, 0.14 kcal/mol:
TGGCTCACGTGGTTAG
GAGGACACGTGATGGG
TCGGTCACGTGCTGGT
ATCTGCACGTGTGTTT
TATTCCACGTGTGTGA
GGTTACACGTGAGTAA

Relative binding free energy, -0.14 kcal/mol:
AGTTCCACGTGGGTGG
TTGTGCACGTGCTGTC
TTACGCACGTGGTTGC
ATTAGCACGTGGTTCG
GTTGACACGTGGTGCA
GGTCACACGTGGGGGA

— the BET-seq Pho4 binding data (Le et al. 2018)
